From PubChem BioAssay (NCI)
Some compounds were tested as several samples or in several runs, with calls that do not always agree.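 Plates (96-well) were seeded with cells, treated with compound at one concentration, and incubated for 48 hours before percent growth was determined.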 The source holds more than one record for some entries. This list holds those alone. How the source made its calls: active means growth percent below 10; inactive means the rest. The source may hold further records. The screen tested this drug many times, at the concentration stated with the values; each value is one run. Counts like (3×) say how often a value occurs here.

Tested on: IGROV1 ovarian
Test: NCI-60 one-dose screen, 48 h (100 = growth as untreated, 0 = no growth, -100 = all killed)

## COc1cccc2c1C(=O)c1c(O)c3c(c(O)c1C2=O)C[C@@](O)(C(=O)CO)C[C@@H]3OC1CC(N)C(O)C(C)O1 (stereo not given in full)
0.25 µM, runs of 2017
  growth: inactive: 40, 42.2, 34.1, 34.3, 33.4 (2×), 35.2, 30.4, 36.4 (2×), 34.5 (2×), 32.2, 37.3, 39, 37.6, 31.4 (3×), 31.2, 34.4, 28.1, 33.3, 33.2, 34.6, 30.2 (2×), 32.9 (2×), 37.4 (2×), 41.1, 31.3, 33.1 (2×), 33.5, 36.5, 35.9 (2×), 34 (2×), 30.7, 37.8, 37.1 (2×), 32.3 (2×), 35.4 (2×), 32.1, 29.9, 28, 34.8, 34.9, 36.2 (2×), 56.2, 57, 36.7, 42.7, 36.6, 36.8, 42, 45.3, 46.7, 38.5, 44.9, 35.1 (2×), 37, 29.2, 39.6, 29.1, 36, 37.9, 24.8, 35.5 (2×), 36.9, 45.4, 26, 40.4, 45.2, 38.7, 33.9%
0.25 µM, runs of 2018
  growth: inactive: 40, 43.6 (2×), 34.3, 35, 39.7, 40.8, 33.3, 34.4 (2×), 32.4 (2×), 32.5, 32.1, 28.8, 39.4 (2×), 43.4, 33.4, 32.3, 35.8, 34.1, 35.5, 38.9 (2×), 32.2, 40.3, 35.2 (2×), 36.5 (2×), 30.9, 28.5, 25.7, 25.2, 40.4 (2×), 36.4, 47, 43.1, 39.5, 41.5, 42.3, 42.2, 35.1, 41, 46, 39.2 (2×), 37.2, 36.8, 38.5, 43.7, 36, 34.5, 25.3, 46.7%
0.25 µM, runs of 2019
  growth: inactive: 34.9, 36, 33.1, 24.7, 32.2, 30.3, 39.3, 35.8, 47.8, 30.4, 32.8, 43.2 (3×), 50.4, 46.3, 39.9 (3×), 40.8 (3×), 43.6, 35.9, 41.3 (2×), 47.3, 44, 54.7, 53.9, 45, 42.7, 42.8, 44.7, 44.6, 47.2, 42, 42.6, 43, 45.2, 48.7, 43.4, 39.2, 42.2, 41.8, 48.5, 41.6, 38.1, 37.4, 35.7%
0.25 µM, runs of 2020
  growth: inactive: 40, 33.6, 45.8, 46.8, 47.1, 41.8, 47.4, 35.9, 35.3, 36.6, 37.1 (2×), 49.1, 52.5, 50.1, 44.9, 42, 42.4, 35.7, 44.2, 39.7, 35.8, 40.6%
0.25 µM, runs of 2021
  growth: inactive: 46.9, 54, 56.5, 47.7, 42.3, 42.4, 39, 41.1, 41.9 (2×), 38.1, 35.6 (2×), 42.8, 40.5, 43.3, 42.6, 43.9 (2×), 41.8 (2×), 42.7, 37.8, 38.2, 39.1, 34.6, 36.9, 39.2, 38, 43.5, 42, 41.6, 45, 36.2, 43.2, 36.7, 37.9, 40.3, 46.5, 46.7 (2×), 47.9, 34.2, 37.4, 34.4, 37.5, 39.9, 32.2 (2×), 44.3, 33.5, 48.7%
0.25 µM, runs of 2022
  growth: inactive: 20, 22.6, 33.7, 32.6, 29.1, 28.2, 45.2, 38.3, 45.3, 33.6, 36.7, 42.8, 38.9, 49.5, 47.4, 47.3, 43.9, 72.4, 49.1, 91.8, 64.9, 85.2, 52.7, 52.9, 57.2, 57.7, 62.1% and active: 6.4%
25 µM, runs of 1991
  growth: inactive: 56.8, 20.1, 26.8, 12.6, 12.7% and active: -27.4, -7.04, -44.1, -9.94, -22.5, -12.7, -11.6, 0.362, -19.3, 3.12, 3.21, -18.5, -27.6, -33.7%
25 µM, runs of 1992
  growth: active: 7.4, -4.81, -23.9, -14.7, -30.4, -38.5, -13.1, 1.62, -5.5, 2.94, -3.53, -15.4 (2×), -24.3, -19, -9.34, 1.76, -9.55, -31.7, -4.42, -26.7, -6.15, 2.83, -25.1, -2.1, -7.86, -13.5, -29.6, -50.3, -41.7, -11.5, -19.1, -31.9, -27.6, -41.6, -29.2, -15.6, -6.84, -6.07, -8.37, -35.4, -35.6, -15.2 (2×), -6.89, -24.1 (3×), -22.5, -37.7, -35, -43.5, -28.5, -24.7, -16.5, 0.498, 0.8, -6.19, -19.6, -11, -31, -11.2, -22.4, 0.677, 5.37, -20, -41.4, -15.9, -35.8, -40.3, -5.27, -11.1, -19.7, -18.1, -26.3 (2×), 5.25, -24.4, -27.4, -28, -35.9, -34, -82.8, -12.3, -19.4, -4.12, -3.11, -18.8, -34.7, -23.4, -6.63, -13.6, -10.9, -37.2, -10.5, -30.3, -5.79, -2.83, -20.1, -43.8, -28.7, -34.2, -76.1, -78.3, 1.61, 5.52, -17.3, -66.1, -4.17, -25.8, 4.13, -17.9, -49.6, -23.3, -24.2, -22.3, -8.32, -44.7, -63.3% and inactive: 10.7%
25 µM, runs of 1993
  growth: active: -34.9, -7.66, -40.6, -44.1, -15.7, -14, 3.49, -46, 0.646, -31, -29.6, -40.9, 2.58, -20, -29.2, -34.5, -31.8, -14.9, -28.9, -53.7, -34.2, 3.45, -29.8, -18.1, -21, -8.94, -15.1, 0.317, 1.66, -47.6, -27.3, -55.9, -69.6, -50.8, -23.3, -23.9, -48.4, -19.6, -51.2, -39.9, -6.4, -40.5% and inactive: 11.8%, 10.4%, 17.3%
25 µM, runs of 1994
  growth: active: -12.5, -31, -42.6, -22.6, -49.7, -23.1 (2×), -47.9, -50.4, -14.8, -41.7, -40.2, -58.5, -46.8, 6.74, -22.2, -30.5, -44.1, 2.75, -29.9, -3.14, -35.4, -34.5, -29.5, 1.22, -2.6, -19.3, -29.1, -37.8, -39.5, -25.8, 3.67, -18.5, -23.4% and inactive: 103%
25 µM, runs of 1995
  growth: active: -18, -66.3, -57.1, -28.8, -20.6, 0.926, -9.64, -4.9, -19.1, -23.7, -67.8, -6.54, -36.7, -14.5, 2.9, -21.3, -28.4, -10.3, -59.6, -42.3, 1.92, -51.5, -25.2, -28, -39.5, -60.1, -19.4, -41.6, 3.42, -3.03, -20.7, 4.36, -23.8, -60.5, -7.12, -38.3, -21.7% and inactive: 13.7%, 73.6%
25 µM, runs of 1996
  growth: active: -42.9, -22 (2×), -34, -34.4, 3.14, -0.124, 2.25, -29, -22.4, 3.17, -21.6, -30.8, -11.6, -16.6, -37.6, -43.4, -27.8, 4.91, -29.9, -45.2 (2×), -30.9, -54.6, -55.8, -23.8, -63.5, -32.3, -57.5, -40.5, -44, -49.6, -38.6, -26.2, -28.3, -44.4, -54.3, -50.9, -42.3, -5.74, -11, -42, -34.1, -23.6, -15.5, -46.3, 2.84, -27.3, 8.98, -27.6, -40.3, -59.4, -26.8, -19.4% and inactive: 13%, 81.5%, 27.9%
25 µM, runs of 1997
  growth: active: 4.9, 0.269, -44, -25.7, -23.3, -39.7, -9.4, -28, -31.5, 1.89, -49.5, -11.2, 7.91, 8.83, -36.3, -41.7, -20.5, -50.6, -14, -36.6, -2.4, -57.7, -45.3, -6.11, -25.6, 6.48, 0, -47, -31.6, -27.8, -3.3, -43.8, 0.612, -64.7% and inactive: 11.9%, 12.4%
25 µM, runs of 1998
  growth: active: -7.24, -51.4, -69, -41.3, -32.3, -47.7, -40.5, 0.34, -31.6, -63.4, -69.8, -84.8, -49.8, -24.6, 1.94, -77.9, -24.1, -3.34% and inactive: 19.3%
25 µM, runs of 1999
  growth: active: -95.3, -70.4, -49.2, -22, -98.2, -10.3, -100 (2×), -62.5, -60.8, 0.502, -54.2, 2.32, -92.2, -1.54, -36.7, -17.1%
